This is an account of results in the supplement of paper PMC12889115.

Some of the results follow. Cut-off read from the data, not from the text of the source: active = 25% or less and inactive = the rest. Single values are uncertain, as repeats are few or missing.
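Note: compounds tested were the hits of an earlier 50 µM broth growth screen of a drug-like diversity library run with polymyxin B.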

The experiment deals with Salmonella enterica serovar Typhimurium SL1344. As to the kind of experiment: intramacrophage bacterial GFP load (SAFIRE), percent of DMSO control (% of DMSO); higher = more intracellular bacteria (less inhibition). The following applies: 25 µM; system: infected RAW 264.7 macrophages. As for the experimental part: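 Secondary screen of the 553 primary hits at 25 µM. (i) S. Typhimurium SL1344 grown in Mueller-Hinton broth with 0.5 µg/mL polymyxin B, OD600 read after 18 h. (ii) SAFIRE assay: RAW 264.7 macrophages infected with S. Typhimurium sifB::gfp (MOI 30); compound added 2 h post-infection; cells fixed at 18 h; GFP-positive pixel fraction per macrophage imaged by confocal microscopy and expressed as % of DMSO control.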
With `Cc1cccc2nc(CN(C)c3nncc(-c4ccc(Cl)cc4)n3)[nH]c12`, the “intramacrophage bacterial GFP load” value is inactive: 122. Consider `Cc1cc(Cl)c2oc(C(=O)N(CCO)Cc3ccccc3)c(C)c2c1`, for which the “intramacrophage bacterial GFP load” value was inactive: 81.3. For `C=C(C)CN(CC)Cc1c(C(=O)N2CCc3ccccc3C2)nc2ccc(Cl)cn12` the value was inactive: 62.7. For the compound `O=C(Nc1ccc(-c2ccco2)cc1)C1CCCN(Cc2cccc3nonc23)C1` (stereo unspecified), the “intramacrophage bacterial GFP load” value is inactive: 118.

On to `CN(Cc1ccccc1)C1(C(=O)NC2CCS(=O)(=O)C2)Cc2ccccc2C1` (stereo unspecified), for which the “intramacrophage bacterial GFP load” value is inactive: 123. With `COc1ccc(-c2noc(CN3CCC(O)(c4cccc(C(F)(F)F)c4)CC3)n2)cc1`, the “intramacrophage bacterial GFP load” value was inactive: 106.
